According to PubChem BioAssay (NCI):
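Test compounds were applied to cells in 96-well plates for 48 hours at 5 doses. The concentration for 50% growth inhibition is given as GI50. TGI is the concentration that stops growth completely.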

System: NCI-H322M lung
Assay: NCI tumour cell line growth inhibition, 48 h

Row | Structure (SMILES) | GI50 | TGI
1 | CC[C@]12C=CCN3CC[C@@]4(c5ccc(OC)cc5N(C)[C@H]4[C@@](O)(C(=O)OC)[C@@H]1OC(=O)CCCC[P+](c1ccc(OC)cc1)(c1ccc(OC)cc1)c1ccc(OC)cc1)[C@@H]32 | 2.79 µM | 11.1 µM
2 | CNS(=O)(=O)N1CCc2c(Br)c3c(c(OC)c2C1CCc1ccccc1)OCO3 (stereo not drawn) | 18.3 µM | > 100 µM
3 | COc1ccsc1/C=N/NC(=O)c1[nH]c2ccc(Br)cc2c1-c1ccccc1 | 0.809 µM | > 78.2 µM
4 | COc1cc(-c2ccc3ncnc(N4CCc5ccc(Cl)cc54)c3c2)cnc1Cl | 2.55 µM | 11.8 µM
